Structures are written as SMILES. The whole screen tested about 52,000 compounds, of which about 4,300 (8.3%) were called active. Cut-off read from the data, not from the text of the source: active = survival mostly below about 52% (no sharp cut-off); inactive = mostly above about 56%. The list shows a part of the results.

The test system of this assay is DeltatarO mutant. The assay is described as follows: S. aureus survival, RN4220 and DeltatarO strains – OD600, teichoic acid synthesis inhibitors, primary screen (AID 463173). The conditions noted are these: S. aureus RN4220 wild type/DeltatarO growth, OD600, 18 h, active compounds read low, screened at 18.75 µg/mL (by protocol).
On to `COc1ccccc1CNC(=O)C1CCCN(c2nnc(C)c3c(C)n(-c4ccccc4)nc23)C1` (configuration not stated), for which the survival is inactive: 86%.

Consider `CN(C)c1ccc(NC(=O)CSc2nc3ccccc3cc2C#N)cc1`, for which the survival was inactive: 66%.

Take `CN1CCN(C(=S)NC(=O)c2ccccc2)CC1`: the survival was inactive: 100%.

`O=C(CCSCc1cccc(Cl)c1)NCc1ccc(F)cc1Cl`: the survival is inactive: 102%.

`Cc1ccc2[nH]c(CSc3nnc(NC(=O)c4ccccc4F)s3)cc(=O)c2c1`: the survival was inactive: 83%.

With `CC(C)(C)C1CCc2nc(NC(=O)c3ccc([N+](=O)[O-])cc3)sc2C1` (configuration not stated), the survival was inactive: 95%.

For the molecule `CC1Cn2c(C(=O)NCc3cccc(Br)c3)cc3cccc(c32)S1` (configuration not stated), the survival is inactive: 87%.

Turning to `COC(=O)c1ccc(Nc2cc(=O)[nH]c(=O)[nH]2)cc1`, the survival was inactive: 79%.

Turning to `COc1ccc2oc(-c3ccc(C)c(NC(=O)c4ccc(-c5ccccc5[N+](=O)[O-])o4)c3)nc2c1`, the survival is active: 42%.

For the molecule `Cc1ccc(C(=O)O)cc1NC1(c2ccccc2)C(=O)c2ccccc2C1=O`, the survival is inactive: 135%.

For `Cc1c(Cl)cccc1NC(=O)CSc1nc2ncccc2o1`, the survival was active: 6%.

Turning to `COc1cccc(/C=C/c2nc(C#N)c(NCCc3ccccc3)o2)c1`, the survival is inactive: 90%.

In the case of `COc1ccc(C(=O)Nc2ccc3oc(-c4cccnc4)nc3c2)cc1`, the survival was inactive: 53%.

Regarding `Clc1cccc(N2CCN(c3nc4ccccc4n4nnnc34)CC2)c1`, the survival is inactive: 74%.

Turning to `COc1ccc(C2C=C(c3ccccc3)Nc3nc(NC(=O)c4cccc([N+](=O)[O-])c4)nn32)cc1` (configuration not stated), the survival is inactive: 55%.

With `COc1ccccc1-c1nc(SCC(=O)NCc2ccc(C)cc2)c2c(=O)n(C)c(=O)n(C)c2n1`, the survival was inactive: 69%.

For `Cc1ccc(NC(=O)CNC2CCCCC2)cc1Cl`, the survival was inactive: 61%.

For `S=c1[nH]nc(-c2ccncc2)n1Cc1ccccc1`, the survival was inactive: 63%.

Consider `Cc1cccc(CN2C(=O)N(c3ccc(C(C)C)cc3)S(=O)(=O)c3ccccc32)c1`, for which the survival was inactive: 88%.

As for `Cc1ccc(-c2ccc(=O)n(CC(=O)Nc3ccc(C)cc3Cl)n2)cc1`, the survival was inactive: 50%.

Take `O=C(CSc1nnc(CNc2ccc(F)cc2)o1)N1c2ccccc2Sc2ccccc21`: the survival is inactive: 97%.

With `Cc1ccc(Cl)cc1N1CCN(C(=O)c2ccc(NC(=O)c3nsc4ccccc34)cc2)CC1`, the survival is active: 6%.

As to `CCOC(=O)COc1ccc(CC)cc1C(=O)c1ccn2nc(-c3ccccc3)cc2n1`, the survival was inactive: 78%.

In the case of `COC(=O)c1sccc1S(=O)(=O)N1CCN(c2cc(Cl)ccc2C)CC1`, the survival was inactive: 83%.

Turning to `COCCNC(=O)CCn1c(=O)c2cc(OC)c(OC)cc2n(CC(=O)Nc2ccc(Cl)cc2F)c1=O`, the survival was inactive: 67%.

`Cc1ccc(-c2n[nH]c3c2C(c2ccc(C(C)(C)C)cc2)NC3=O)cc1` (configuration not stated): the survival is inactive: 109%.

For `Cc1nn(S(=O)(=O)c2ccc(C(C)(C)C)cc2)c(C)c1S(=O)(=O)N1CCCCCC1`, the survival is inactive: 83%.

For the molecule `Cc1ccc(NC(=O)c2oc3ccc(S(=O)(=O)N4CCC5(CC4)OCCO5)cc3c2C)cc1C`, the survival was inactive: 123%.

Consider `C=C(C)Cn1c(CO)nc2ccccc21`, for which the survival is inactive: 73%.

On to `Cc1ccc(OCC(=O)Nc2cccc(-c3nc4ccccc4s3)c2)cc1`, for which the survival is active: 47%.

In the case of `Cc1c(C(=O)NCc2ccccc2)sc2nc3n(c(=O)c12)CCCCC3`, the survival is inactive: 56%.

`CCOC(=O)c1ccc(NC(=O)C2CCCN(c3ncnc4onc(-c5ccc(F)cc5)c34)C2)cc1` (configuration not stated): the survival is inactive: 94%.

Regarding `COc1cccc(CNC(=O)c2sc3nc(C)cc(C)c3c2-n2cccc2)c1OC`, the survival was inactive: 74%.

For the molecule `CC(=O)c1cccc(NC(=O)C2CCN(C(=O)c3cnn(-c4ccccc4)c3-n3cccc3)CC2)c1`, the survival was inactive: 109%.

Regarding `Cc1c(C(=O)NCc2ccccc2Cl)sc2nc3n(c(=O)c12)CCCCC3`, the survival is inactive: 90%.

As to `Cc1cn2c(=O)cc(COC(=O)c3cccc(NC(=O)c4ccc(C(C)(C)C)cc4)c3)nc2s1`, the survival was inactive: 103%.

As for `CCn1cc2nc(SCC(=O)Nc3ccc(OC)c(OC)c3)n(Cc3ccc(Cl)cc3)c(=O)c2n1`, the survival was inactive: 46%.

Regarding `COc1ccc(-c2cc(-c3ccc(F)cc3)nc3c2COc2ccc(F)cc2-3)cc1`, the survival was inactive: 65%.

On to `CCOc1ccc(-n2c(/C=C/c3cccc(F)c3)nc3cc(OC)c(OC)cc3c2=O)cc1`, for which the survival is inactive: 73%.

In the case of `COc1ccc(-c2oc3ncn4nc(-c5ccccc5O)nc4c3c2-c2ccc(OC)cc2)cc1`, the survival is inactive: 62%.

For `Cc1nn2c(=O)cc(COC(=O)c3cccc(NC(=O)CCc4ccccc4)c3)nc2s1`, the survival is inactive: 72%.

Regarding `Cc1ccccc1-c1nc2scc(CCNS(=O)(=O)c3ccccc3)n2n1`, the survival is inactive: 81%.

`CCC1CN(C(=O)N2CCC(C(=O)NCc3ccc(N(C)C)cc3)CC2)c2ccccc2O1` (configuration not stated): the survival is inactive: 73%.

As to `CCCCC(=O)NCc1nc2cccnc2n1Cc1ccc(OC)cc1`, the survival is inactive: 92%.

`CCOC(=O)c1ccc(N2CCN(c3cc(C)ccc3C)CC2)c(NC(=O)Nc2ccc(CC)cc2)c1`: the survival was inactive: 79%.

Regarding `Cc1cccc(-c2cc3nc(-c4ccccc4)cc(=O)n3[nH]2)c1`, the survival was inactive: 97%.

In the case of `Cc1ccc2c(c1)C(Cc1ccccc1F)C(=O)N2` (configuration not stated), the survival was inactive: 115%.

On to `Cc1cc(C)nc(NC(=O)COc2ccc(Br)cc2)n1`, for which the survival was inactive: 84%.

With `COc1ccc(CCNC(=O)C(CC(C)C)N2Cc3ccccc3C2=O)c(OC)c1OC` (configuration not stated), the survival is inactive: 88%.

With `CCn1cc(CCC(=O)NCc2ccc(C)cc2)c2ccccc21`, the survival was inactive: 77%.

As for `COc1cc2c(=O)n(Cc3ccccc3Cl)c(=O)n(CC(=O)Nc3ccc(C)c(C)c3)c2cc1OC`, the survival is inactive: 83%.

For the molecule `CC(C)Oc1ccccc1C1C=C(C(=O)O)Nc2ncnn21` (configuration not stated), the survival was inactive: 128%.

Regarding `COc1ccc(CCn2c3c(c(=O)[nH]c2=O)C(NC(=O)c2ccccc2F)(C(F)(F)F)C(=O)N3)cc1OC` (configuration not stated), the survival is inactive: 60%.

In the case of `S=C(NCCCN1CCOCC1)Nc1ccccc1`, the survival is inactive: 89%.

For `COc1ccc(C)cc1NC(=O)C1CCN(S(=O)(=O)c2ccc3[nH]c(=O)oc3c2)CC1`, the survival is inactive: 80%.

Turning to `Cc1cccc(C(=O)Nc2cc(-c3nc4cccnc4s3)ccc2C)c1`, the survival is active: 45%.

For the molecule `O=C1CN(C(=O)COc2ccc(Cl)cc2)C(c2ccccc2)c2cc(Br)ccc2N1` (configuration not stated), the survival is inactive: 60%.

Consider `O=C(NCc1ccccc1)C1CCCN(S(=O)(=O)c2cccc3nsnc23)C1` (configuration not stated), for which the survival is inactive: 99%.

With `CC(C)(C)OC(=O)N1CCC(c2c(C(=O)Nc3ccc4c(c3)OCCO4)cnn2-c2ccc(Cl)cc2)CC1`, the survival was inactive: 87%.

Consider `CCOc1ccc(NC(=O)CN2C(=O)CC(C)Sc3ccccc32)cc1` (configuration not stated), for which the survival was inactive: 83%.

Take `O=C(NCc1cccnc1)c1cnn2c(C(F)F)cc(-c3ccccc3)nc12`: the survival was inactive: 77%.

Regarding `CC(=O)Nc1ccc(/C=C/c2nc(-c3ccccc3O)n(-c3ccccc3)n2)cc1`, the survival is inactive: 84%.

Consider `Cn1c(=O)oc2cc(S(=O)(=O)N3CCCC(C(=O)NCCc4ccc(Cl)cc4)C3)ccc21` (configuration not stated), for which the survival is inactive: 86%.

`COc1ccccc1CNS(=O)(=O)c1ccc2c(c1)NC(=O)C(C)C(=O)N2` (configuration not stated): the survival was inactive: 71%.

Take `Cc1ccc2occ(CC(=O)N(Cc3ccccc3Cl)C3CCS(=O)(=O)C3)c2c1` (configuration not stated): the survival is inactive: 77%.

For `O=C(CSc1oc(-c2ccccc2)nc1S(=O)(=O)c1ccc(Cl)cc1)Nc1ccc(F)cc1`, the survival was inactive: 162%.

As to `CC1CCC(Nc2nc3c(-c4ccc(Cl)cc4)nnn3c3ccccc23)CC1` (configuration not stated), the survival was active: 8%.

Take `CCn1c(SC)nnc1C1CCCN1CC(=O)N1CCN(Cc2ccc3c(c2)OCO3)CC1` (configuration not stated): the survival was inactive: 79%.

Turning to `CC(=O)c1ccc(NC(=O)CN2C(=O)CCc3ccccc32)cc1`, the survival was inactive: 84%.

Regarding `CCOc1ccc(N(C)C(=O)CS(=O)(=O)c2cccc3nsnc23)cc1`, the survival was inactive: 73%.

Consider `COC(=O)CSc1ncc2c(n1)-c1ccccc1N(Cc1ccccc1C)S2(=O)=O`, for which the survival is inactive: 99%.

Consider `O=C(Cn1cc(SCc2ccc(C(F)(F)F)cc2)c2ccccc21)N1CCOCC1`, for which the survival was inactive: 85%.

On to `Cc1cccc(-c2nc(C)c(CCNC(=O)C(=O)Nc3cccc(Cl)c3C)s2)c1`, for which the survival is inactive: 86%.

Regarding `O=C(NCc1ccccc1)c1cc2sccc2n1Cc1ccc(Cl)cc1`, the survival is inactive: 101%.

As to `COC(=O)c1ccccc1NC(=O)Cn1c(CCC(=O)O)ccc1-c1cccs1`, the survival was inactive: 54%.

In the case of `Cc1ccc2c(c1)c1c3n2CCN(C(=O)Cn2c(-c4ccccc4)noc2=O)C3CCC1` (configuration not stated), the survival is inactive: 90%.

Take `Cc1ccc(-c2nc(-c3cc4c([nH]c3=O)CC(C)(C)CC4=O)sc2C)cc1`: the survival is inactive: 89%.

Take `O=C(c1ccco1)n1nc(-c2ccccc2)nc1NCc1ccc(Cl)cc1`: the survival is inactive: 91%.

Regarding `Cc1nn(-c2ccccc2)c2c1N(CCCC(=O)NCc1ccc(N(C)C)cc1)C(=O)CS2`, the survival was inactive: 87%.

Turning to `CCC(=O)N1c2ccccc2CC1C(=O)N1CCN(c2cccc(Cl)c2)CC1` (configuration not stated), the survival is inactive: 77%.

On to `COc1ccc(CC(=O)Nc2sc3c(c2C(=O)Nc2cccc(Cl)c2)CCCCC3)cc1`, for which the survival is inactive: 59%.

In the case of `CCC(=O)N1CCc2cc(S(=O)(=O)CCC(=O)Nc3ccc(OC(F)(F)F)cc3)ccc21`, the survival was inactive: 83%.

`COc1ccc2nc3oc(C(=O)N4CCN(c5cc(C)ccc5C)CC4)cc3cc2c1`: the survival was inactive: 107%.

Turning to `COc1ccccc1N1CCN(C(=O)C(CCSC)NS(=O)(=O)c2ccc3c(c2)oc(=O)n3C)CC1` (configuration not stated), the survival was inactive: 87%.

In the case of `CC(C)Oc1ccc(CNC(=O)CCCN2C(=O)CCn3nc(-c4cccn4C)cc32)cc1`, the survival is inactive: 95%.

Take `COc1ccc(N2C(=O)CS(=O)(=O)C23C(=O)N(Cc2cccc(F)c2)c2ccccc23)cc1OC` (configuration not stated): the survival is inactive: 73%.

Turning to `Cc1ccc(C)c(S(=O)(=O)c2nnn3c2nc(Nc2ccc(C)c(C)c2)c2sccc23)c1`, the survival was inactive: 77%.
